± gives the standard deviation of the averaged measurements. The list shows a part of the results.

From the supplement of paper PMC11417369 come the findings set out here.

The subject of this assay is PfAP2-I AP2 domain 3 (GST-tagged). Put plainly: gcPBM binding intensity (ln(normalized median fluorescence intensity)); higher = stronger DNA binding. Summed up:
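Binding intensity is the highest Masliner-normalised natural-log median intensity over replicate spots in either probe orientation. To obtain it, GST-tagged P. falciparum DNA-binding domains made in E. coli were incubated for 1 h on an Agilent 4 × 180k array of primer-extended double-stranded 36-bp intergenic genomic probes plus negative controls. Detection used Alexa488 anti-GST antibody with scanning at 488 nm.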
“ATATATATTAGGTATTGTACTTATATGCATATAAGT [XGTACX_site2700]”: the “gcPBM binding intensity (ln)” value turned out to be 8.07 ± 0.43.

In the case of “AATGAATGAATTATTTTGCGCTTATTATAGGACGAA [XGTACX_negctrl_site218]”, the “gcPBM binding intensity (ln)” value came out at 8.23 ± 0.28.

“CACAAAAAGAAACACACACACATATATATTTATTAT [CACACA_site3646]”: the “gcPBM binding intensity (ln)” value turned out to be 7.68 ± 0.61. Turning to “TATATATATATTTATACACACATTAGTGTATACATG [CACACA_site2950]”, the “gcPBM binding intensity (ln)” value amounted to 8.925 ± 0.064. Under “AAGTAATTTATGCATACACACATATATAAATATGTA [CACACA_site7813]” stands 8.02 ± 0.55; under “ATATATATAAAACACACACACACATGTTTTAAAACT [CACACA_site78]”, 8.31 ± 0.55. For the sequence “AAAAACTATTGTAGGACACACAAAATTCCAATTTTA [CACACA_site1701]”, the “gcPBM binding intensity (ln)” value is 7.63 ± 0.39. The value for ATATATTAAAACCTAGTGCATTTGTACATATTTCAA was 9.63 ± 0.099. Consider TTATACAGGACAATAGTGCACATAAATATATGTATA, for which the “gcPBM binding intensity (ln)” value came to 11.2 ± 0.51. Regarding “GCAGTCAAAAAGGAAAATATAAAAAAAGTATATGTG [GTGCAC_negctrl_site95]”, the “gcPBM binding intensity (ln)” value worked out at 7.57 ± 0.61. The value for “AGGTTAAAACATATATATATATATATATATATATAT [XGTACX_negctrl_site333]” was 9.22 ± 0.49; that for “TATATATATATATACACACACACCGTCCGTGTTAAA [CACACA_site2979]” was 9.66 ± 0.16; that for “ACATAATAAAAAAAACGTACAAATAGGTTTTTCATA [XGTACX_site6645]” was 7.87 ± 0.071. As to “GACTATTTTAATATTTTACACACCATGTAAAATATA [CACACA_site9050]”, the “gcPBM binding intensity (ln)” value stood at 8.18 ± 0.69. Under “TTTTTTTATTATTAAAGTACTAAAAAATGAAAACTG [XGTACX_site6758]” stands 7.91 ± 0.21; under “TGGGAATAAAAACACACACACACACCGATATATATA [CACACA_site5875]”, 8.51 ± 0.69. For “TATAATAAAAAATGTACACACATAAGAAAATTTAAT [CACACA_site2901]”, the “gcPBM binding intensity (ln)” value is 7.99 ± 0.66.

With “TAAATACTTATATGTACACACATATAGATATATATT [CACACA_site2553]”, the “gcPBM binding intensity (ln)” value turned out to be 7.62 ± 0.4.

Regarding “ATATAAATAAATGTATGTACATATATTTATATGCAT [XGTACX_site4185]”, the “gcPBM binding intensity (ln)” value was found to be 7.74 ± 0.46. In the case of “CACAGACACGGACACACACACACACCGATATATATA [CACACA_site4353]”, the “gcPBM binding intensity (ln)” value turned out to be 8.44 ± 0.71.

Turning to “ATTTTTTAAAATATTTGTACATATATAATGCATATA [XGTACX_site7026]”, the “gcPBM binding intensity (ln)” value stood at 8.17 ± 0.17. As to “ATATATATATATATATGTACATATATTTGTAATGTC [XGTACX_site8074]”, the “gcPBM binding intensity (ln)” value was 9.35 ± 0.4. Under “TTTATTATGTAAGCATGTACATGATGTATATATTTA [XGTACX_site5021]” stands 7.74 ± 0.36; under “ATCTGTACAGTTTTTGCACACATATAAATAAAAAAA [CACACA_site9198]”, 9.77 ± 0.3; under “TATTTACAAATAAAAAGTACATAAACTAATATCTTT [XGTACX_site2181]”, 7.76 ± 0.35.
